These results are taken from PubChem BioAssay AID488969 (Vanderbilt High Throughput Screening Facility, 2010).

The full ranking holds about 110,000 compounds; the median of “z-score” is about -0.1, and the highest 2% start at about 2. The list shows a part of the results. Calls of active or inactive are those of the source.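 Rule for the calls: active = z-score in the third read window above 3 or below -3; inactive = the rest.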

The target in this test is Metabotropic glutamate receptor 8 (Rattus norvegicus) (UniProt P70579). The test is described as follows: mGluR8 Gi/Go-coupled signaling modulation – cell-based, rat, thallium flux, HTS, primary screen (AID 488969). The note with it: HEK293 rat mGluR8, GIRK (G protein-gated inwardly rectifying potassium channel) thallium flux, FluoZin2; at 10 µM; stronger effect = higher value; submaximal glutamate (EC20) added with thallium.
UniProt P70579, sequence (P70579 whole entry, looked up): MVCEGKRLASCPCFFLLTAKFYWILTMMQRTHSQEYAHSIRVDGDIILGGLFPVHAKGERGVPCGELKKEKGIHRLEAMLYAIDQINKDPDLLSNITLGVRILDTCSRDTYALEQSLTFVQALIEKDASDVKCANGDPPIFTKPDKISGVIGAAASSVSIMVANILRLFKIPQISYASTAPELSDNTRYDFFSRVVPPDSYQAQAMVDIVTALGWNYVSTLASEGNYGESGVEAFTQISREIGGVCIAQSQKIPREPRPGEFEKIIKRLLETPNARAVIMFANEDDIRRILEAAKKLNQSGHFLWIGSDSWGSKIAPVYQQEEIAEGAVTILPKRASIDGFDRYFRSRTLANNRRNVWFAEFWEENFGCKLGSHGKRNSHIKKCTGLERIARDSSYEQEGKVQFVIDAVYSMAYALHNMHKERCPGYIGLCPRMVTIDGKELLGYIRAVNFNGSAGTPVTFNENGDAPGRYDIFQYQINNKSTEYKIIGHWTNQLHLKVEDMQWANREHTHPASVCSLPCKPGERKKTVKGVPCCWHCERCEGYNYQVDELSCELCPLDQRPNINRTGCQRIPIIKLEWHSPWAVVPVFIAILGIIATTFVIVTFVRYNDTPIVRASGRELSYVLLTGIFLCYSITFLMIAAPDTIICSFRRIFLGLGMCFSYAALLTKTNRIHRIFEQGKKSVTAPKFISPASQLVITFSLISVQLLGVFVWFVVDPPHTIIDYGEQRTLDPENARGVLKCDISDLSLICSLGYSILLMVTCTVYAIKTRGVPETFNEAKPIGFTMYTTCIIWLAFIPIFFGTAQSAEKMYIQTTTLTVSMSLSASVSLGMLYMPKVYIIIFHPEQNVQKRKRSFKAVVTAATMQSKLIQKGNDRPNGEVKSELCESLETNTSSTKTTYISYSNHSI
`CC(=O)C1=C(O)C(=O)N(CC(=O)O)C1c1ccccc1Cl` (configuration not stated): the z-score was -0.435.

In turn, `CCn1c(-c2csc3c2CCCC3)n[nH]c1=S` gave a z-score of -0.181.

With `O=C(NC1CCCC1)C1CCCN1C(=O)Nc1ccccc1Cl` (configuration not stated), the z-score was -0.484.

Take `COc1cc2c(cc1OC)-c1cc(N3CCCc4ccccc43)nc(=O)n1CC2`: the z-score was -1.3.

For `COc1ccc(CC(NC(C)=O)C(=O)NC2CCN(S(=O)(=O)c3cccc4ccccc34)CC2)cc1OC` (configuration not stated), the z-score is -0.225.

For `CCNC(=S)NNC(=O)c1csc2ccccc12`, the z-score is -0.0433.

As for `CSc1ccc(NC(=O)NCCCN2CCN(c3ccccc3F)CC2)cc1`, the z-score turned out to be 0.559.

Take `Cc1ccc(NC(=O)C(Cc2ccccc2)NC(=O)c2ccco2)cc1` (configuration not stated): the z-score came out at 0.364.

For `CC(C)c1ccc(-c2nc3c([nH]2)c(=O)n(C)c(=O)n3C)cc1`, the z-score was 0.107.

In the case of `CC(C)(C)NC(=O)NC(=O)COC(=O)c1ccc(OC(F)F)cc1`, the z-score was found to be 1.67.

On to `N#Cc1c(Nc2ccc(F)cc2)sc(C(=O)c2ccccc2)c1N`, for which the z-score was -0.225.

`COc1ccc(S(=O)(=O)N2CCCN(CC(=O)Nc3cc(NC(C)=O)ccc3OC)CC2)cc1` registered a z-score of 0.121.

`c1ccc(-c2cc3nccc(-c4ccccn4)n3n2)cc1`: the z-score is -0.281.

`COc1ccc(-c2nnn(CC(=O)N(CC(=O)NC3CCCC3)c3cccc(C)c3)n2)cc1OC` showed a z-score of -1.72.

As for `COc1cc(CNCCc2ccccc2)ccc1OCC(=O)NC(C)(C)C`, the z-score worked out at 0.486.

`Cc1cc(C)c(C)c(C(=O)COC(=O)CNC(=O)CN2C(=O)c3ccccc3C2=O)c1C` had a z-score of 0.0426.

In turn, `C=CCO/N=C(/C)c1c(O)c(CC)c(-c2ccccc2)n(-c2ccccc2)c1=O` had a z-score of -0.266.

`COc1ccc(CCNC(=O)Cn2cnc3ccccc3c2=O)cc1OC` gave a z-score of -0.146.

In the case of `CC(C)OC(=O)c1c(NS(=O)(=O)c2ccccc2)sc2c1CCCC2`, the z-score was active: 12.3.

With `CCOC(=O)N1CCN(c2c(N3CCc4ccccc43)c(=O)c2=O)CC1`, the z-score was -0.0585.

`Cc1ccc(Cn2cc(SCC(=O)Nc3nccs3)c3ccccc32)cc1` registered a z-score of 1.02.

As to `Cn1nnc2cc(C(=O)N3CCC(c4ccccc4)C3)ccc21` (configuration not stated), the z-score was found to be 0.464.

`COc1cc(/C=C(\NC(=O)c2ccccc2)C(=O)Nc2cccc(O)c2)c([N+](=O)[O-])cc1OC` displayed a z-score of -0.13.

For the molecule `N#C/C(C(=O)N1CCOCC1)=C1/SC=C(c2ccccc2)N1c1ccccc1`, the z-score was determined as 0.399.

With `O=C(c1cc2c(s1)CCCC2)N1CCN(S(=O)(=O)c2ccccc2C(F)(F)F)CC1`, the z-score was -0.466.

Take `CCCNCc1cc(Br)ccc1OCC(=O)NCCc1ccccc1`: the z-score turned out to be 0.565.

`CC(C)N(C(=O)COC(=O)c1ccc(O)cc1)C(C)C` gave a z-score of 0.325.

For `CCCCn1nnnc1SCC(=O)Nc1ccc(N(C)C)cc1`, the z-score is -0.0579.

The molecule `CC1=C(C(N)=O)C(c2cccnc2)n2nc(SCc3ccccc3Cl)nc2N1` (configuration not stated) came in with a z-score of 0.11.

Turning to `c1ccc(OCCn2c(-c3ccco3)nc3ccccc32)cc1`, the z-score is -1.09.

`CCC(=O)N1CCCc2cc(S(=O)(=O)N3CCN(c4ccccc4F)CC3)ccc21` showed a z-score of -1.13.

On to `COc1ccc(S(=O)(=O)N2CCN(Cc3ccc4c(c3)OCO4)CC2)c2ccccc12`, for which the z-score is -0.431.

Turning to `CC(=O)c1c(C)[nH]c(C(=O)COc2cc(C)cc(C)c2)c1C`, the z-score is active: 4.

In turn, `COc1cc(NC(=O)C2CCCN(S(=O)(=O)c3cnc[nH]3)C2)cc(OC)c1` (configuration not stated) returned a z-score of -0.0378.

Molecule `CCOC(=O)c1nnn(-c2nonc2N)c1CN(C)C1CCCCC1` had a z-score of 1.29.

As for `CCOC(=O)c1cn(CC)c2cc(N3CCCCC3)c(F)cc2c1=O`, the z-score was -0.264.

Regarding `COc1cc(/C=N/NC(N)=O)cc(Br)c1OCc1ccc(C)cc1`, the z-score is -0.00475.

`c1ccc2oc(Cc3ccc(Cc4nc5ccccc5o4)cc3)nc2c1` registered a z-score of 0.0437.

With `Cn1c(OCc2ccco2)nc2c1c(=O)n(Cc1ccc(Cl)c(Cl)c1)c(=O)n2C`, the z-score was -0.716.

The molecule `Cc1cc(NC(=O)CCN2C(=O)C3C4C=CC(C4)C3C2=O)c2ccccc2n1` (configuration not stated) came in with a z-score of -0.214.

As for `O=C(O)CCCCCN1C(=O)CCC1=O`, the z-score amounted to 0.242.

In turn, `CCn1c(SCc2nc(CC(=O)Nc3ccccc3OC)no2)nnc1-c1cccs1` registered a z-score of -0.0939.

`O=C(COc1ccc2ccccc2c1)N1c2ccccc2Sc2ccccc21` showed a z-score of -0.195.

`COc1ccc2[nH]c(=O)c(CN(CCO)C(=O)c3cccs3)cc2c1` had a z-score of 0.408.

Take `COc1ccc2c(c1)[nH]c1c(N3CCN(Cc4ccc5c(c4)OCO5)CC3)ncnc12`: the z-score was -0.61.

`CCCS(=O)(=O)N1CCCC(C(=O)NCCc2ccc(Cl)cc2)C1` (configuration not stated) registered a z-score of 0.0651.

For `COc1ccc(C(C)(C)C)cc1NC(=O)COC(=O)c1ncc(Cl)c(Cl)c1Cl`, the z-score worked out at 0.0425.

With `CCCOc1ccc2oc(=O)c3c(c2c1)CCCN3C(=O)CN1CCN(c2ncccn2)CC1`, the z-score is -1.13.

The molecule `Clc1ccc(COc2ccccc2CNCc2cccnc2)cc1` had a z-score of -0.283.

Take `Cc1csc(C(C#N)C(=O)c2cc3ccccc3o2)n1` (configuration not stated): the z-score is -0.339.

Turning to `NC(=O)c1ccc(NC(=O)COC(=O)c2cccc(Oc3ccccc3)c2)cc1`, the z-score was -0.163.

Consider `O=C(c1cccs1)N1CCc2c([nH]c3ccccc23)C1c1ccc(Cl)cc1` (configuration not stated), for which the z-score is -0.195.

Regarding `CCCCn1c(C(C)NC(=O)COC)nc2ccccc21` (configuration not stated), the z-score was found to be 0.106.

`COc1cc(C(=O)OCC(=O)NC2CCS(=O)(=O)C2)ccc1OCc1c(C)noc1C` (configuration not stated) gave a z-score of 0.0931.

Take `CCOc1ccccc1NC(=O)COC(=O)c1cc(C(=O)OC)cc([N+](=O)[O-])c1`: the z-score is -0.184.

The molecule `Cc1ccc(C(C(=O)NC2CCCCC2)N2CCC3(CC2)OCCO3)cc1` (configuration not stated) returned a z-score of 0.171.

For `COc1ccc(CSc2nnc(CNS(C)(=O)=O)o2)cc1`, the z-score was found to be 0.953.

`O=C(NC(NC(=S)Nc1c(Cl)cccc1Cl)C(Cl)(Cl)Cl)c1cccc([N+](=O)[O-])c1` (configuration not stated) registered a z-score of -0.258.

`Cc1ccc(N/C(SCc2ccccc2C)=C(/C#N)C(=O)NCc2ccco2)cc1C`: the z-score is -0.331.

In turn, `O=C(NC1CCCCC1)c1cccc(S(=O)(=O)N2CCOCC2)c1` returned a z-score of -0.092.

In turn, `COC(=O)c1ccccc1NC(=O)/C=N/O` yielded a z-score of -0.42.

As for `CCc1ccc(NC(=O)CSc2nnc(Cc3cccn3C)n2-c2ccc(OC)cc2)cc1`, the z-score is -0.16.

`COc1cc(NS(=O)(=O)c2ccc(NC(C)=O)cc2)ncn1` had a z-score of 0.373.

`COc1ccccc1NC(=O)COc1ccc(C(=O)OCC(=O)N(C(C)C)C(C)C)cc1OC` displayed a z-score of -0.432.

For `Cc1cc(=O)oc(C)c1C(=O)Nc1ccc2ncccc2c1`, the z-score is -0.12.

The molecule `O=C(NCc1ccccn1)c1cccc(NS(=O)(=O)c2cccc(F)c2)c1` returned a z-score of -0.306.

The molecule `CN(C)CCOC(=O)Cc1ccc(Cl)cc1` registered a z-score of 0.164.

`CCOc1ccc(OCC)c(S(=O)(=O)N2CCCCC2C)c1` (configuration not stated): the z-score is -0.14.

As to `Cc1ccc(SCc2nc(-c3ccccc3)no2)cc1`, the z-score came to 0.242.

Molecule `Cc1onc(-c2ccccc2Cl)c1C(=O)NCc1ccc(N2CCCC2=O)cc1` had a z-score of 0.231.

`O=C(Nn1c(=S)[nH]c2ccccc2c1=O)c1ccncc1` gave a z-score of 0.643.

`O=C(O)COc1c(-c2ccccc2)oc2ccccc2c1=O` came in with a z-score of -0.158.

Take `CN1CCN(c2nc(N3CCN(c4ccccc4)CC3)ncc2F)CC1`: the z-score was found to be 0.0781.

Regarding `O=C(NC(=S)NNC(=O)c1cccs1)c1ccc(Br)o1`, the z-score was active: 4.37.

Molecule `Cc1cnc(C(=O)OCC(=O)NC2CCCCC2)cn1` yielded a z-score of 0.866.

Take `C=CC#CC[N+]1(CC#Cc2ccccc2)CCOCC1`: the z-score is -0.316.

Molecule `CCOC(=O)C1C(=O)C(C(C)=O)C(=O)CC1CC(C)SCC` (configuration not stated) returned a z-score of 0.329.

`CC(C)(C)NC(=O)CSC(=Nc1ccc(F)cc1)NC#N` displayed a z-score of -0.227.

On to `CC(=O)NCC(=O)OCN1C(=O)c2ccccc2C1=O`, for which the z-score was determined as 1.22.

In turn, `Cc1ccc(S(=O)(=O)Nc2cccc(C(=O)Nc3cc(C)ccn3)c2)cc1` gave a z-score of 0.154.

In turn, `Cc1cccc(N(CC(=O)NC2CCCC2)C(=O)c2cc3cc4cccc(C)c4nc3s2)c1C` gave a z-score of -0.282.

In turn, `O=C(CSc1nc2ccccc2o1)N1c2ccccc2Sc2ccc(Cl)cc21` registered a z-score of -0.0608.

In the case of `O=C1CCc2cc(S(=O)(=O)NC(Cc3ccccc3)C(=O)NC3CCCCC3)ccc2N1` (configuration not stated), the z-score stood at 0.068.

Molecule `Cc1c(O)ccc2c3c(c(=O)oc12)CCC(C)C3` (configuration not stated) had a z-score of -0.81.

As for `CC1CC(C)CN(C(=O)Cn2c(SCC(=O)N3CCc4ccccc4C3)nc3ccccc32)C1` (configuration not stated), the z-score was -0.128.

Regarding `CCCNc1nc(C)nc2c1cnn2CCc1ccccc1`, the z-score is -0.187.

`CCCC1CCC(=NNC(=O)OC(C)(C)C)CC1` (configuration not stated) displayed a z-score of -0.234.

Take `COc1ccc(CCN(C(=O)C(F)(F)F)C(C(=O)NC2CCCCC2)c2ccc(C)s2)cc1` (configuration not stated): the z-score stood at 0.357.

In the case of `COc1ccc(OC)c(NC(=S)NCc2cccnc2)c1`, the z-score is -0.256.

Consider `CN(c1ccc(C(=O)NC2CC2)cc1)S(=O)(=O)c1ccccc1`, for which the z-score is -0.391.

Molecule `O=S(=O)(NC1CCCCC1Nc1ccc(Cl)cc1)c1ccccc1` (configuration not stated) registered a z-score of -0.0667.

For `Cc1cc(-c2n[nH]c(=S)n2Cc2ccccc2)cs1`, the z-score is 0.453.

In turn, `CCOC(=O)c1ccc(N2C(=O)CC(C3CCCO3)C2=O)cc1` (configuration not stated) gave a z-score of -0.0255.

The molecule `O=C(COC(=O)Cc1cccc2ccccc12)Nc1ccccc1-c1ccccc1` displayed a z-score of -0.174.

In the case of `O=C(CSc1n[nH]c(=O)[nH]c1=O)N/N=C/c1ccccc1`, the z-score worked out at 0.0445.

`Cc1cc(C(=O)N/N=C/c2ccco2)c2ccccc2n1`: the z-score is 0.0513.

For the molecule `NS(=O)(=O)c1ccc2nc(NC(=O)C3CCCO3)sc2c1` (configuration not stated), the z-score came to 2.74.

In the case of `COC(=O)c1ccccc1NC(=O)CCNC(=O)Cn1cnc2ccccc2c1=O`, the z-score was -0.113.

Molecule `Cc1nc(-c2cccnc2)sc1C(=O)Nc1ccc(C(F)(F)F)cc1` yielded a z-score of -0.151.

`COc1cc(/C=N/NC(=O)COc2c(C)cc([N+](=O)[O-])cc2C)ccc1OC(=O)c1ccccc1` came in with a z-score of -0.81.

`COC(=O)c1ccccc1NC(=O)COC(C)=O` came in with a z-score of -1.01.

In the case of `O=C(NCc1ccc2c(c1)OCO2)c1cc([N+](=O)[O-])ccc1N1CCCCC1`, the z-score is -0.364.

`CC(=O)Nc1cccc(Oc2ccc3c(c2)C(=O)N(CCC(=O)O)C3=O)c1` gave a z-score of -0.328.

The molecule `COc1ccc(N2CCN(CC(=O)Nc3cc(C)on3)CC2)cc1` came in with a z-score of 0.403.

`O=C(NCCCN1CCCC1=O)c1ccc(CNS(=O)(=O)c2ccc(F)cc2)cc1` came in with a z-score of -0.08.

`Cc1ccc(Cl)cc1N1CCN(C(=O)COc2ccc(S(=O)(=O)NC(C)C)cc2)CC1` had a z-score of 0.944.

`CCOC(=O)N1CCN(C(=O)COc2ccc(S(=O)(=O)Nc3ccc(OCC)cc3)cc2)CC1` yielded a z-score of -0.616.
